Results taken from publication PMC4336329 (PLoS ONE, 2015).
Screen size: about 310,000 compounds; about 2,200 (0.71%) showed an effect of 50% or more. The effect is printed as a negative number. The list shows a part of the results.

These compounds were tested against human ether-à-go-go-related gene (hERG) potassium channel (human, UniProt Q12809) (assay: primary screen, population patch clamp on CHO cells stably expressing hERG).
Chain of human ether-à-go-go-related gene (hERG) potassium channel (Q12809 whole entry, looked up): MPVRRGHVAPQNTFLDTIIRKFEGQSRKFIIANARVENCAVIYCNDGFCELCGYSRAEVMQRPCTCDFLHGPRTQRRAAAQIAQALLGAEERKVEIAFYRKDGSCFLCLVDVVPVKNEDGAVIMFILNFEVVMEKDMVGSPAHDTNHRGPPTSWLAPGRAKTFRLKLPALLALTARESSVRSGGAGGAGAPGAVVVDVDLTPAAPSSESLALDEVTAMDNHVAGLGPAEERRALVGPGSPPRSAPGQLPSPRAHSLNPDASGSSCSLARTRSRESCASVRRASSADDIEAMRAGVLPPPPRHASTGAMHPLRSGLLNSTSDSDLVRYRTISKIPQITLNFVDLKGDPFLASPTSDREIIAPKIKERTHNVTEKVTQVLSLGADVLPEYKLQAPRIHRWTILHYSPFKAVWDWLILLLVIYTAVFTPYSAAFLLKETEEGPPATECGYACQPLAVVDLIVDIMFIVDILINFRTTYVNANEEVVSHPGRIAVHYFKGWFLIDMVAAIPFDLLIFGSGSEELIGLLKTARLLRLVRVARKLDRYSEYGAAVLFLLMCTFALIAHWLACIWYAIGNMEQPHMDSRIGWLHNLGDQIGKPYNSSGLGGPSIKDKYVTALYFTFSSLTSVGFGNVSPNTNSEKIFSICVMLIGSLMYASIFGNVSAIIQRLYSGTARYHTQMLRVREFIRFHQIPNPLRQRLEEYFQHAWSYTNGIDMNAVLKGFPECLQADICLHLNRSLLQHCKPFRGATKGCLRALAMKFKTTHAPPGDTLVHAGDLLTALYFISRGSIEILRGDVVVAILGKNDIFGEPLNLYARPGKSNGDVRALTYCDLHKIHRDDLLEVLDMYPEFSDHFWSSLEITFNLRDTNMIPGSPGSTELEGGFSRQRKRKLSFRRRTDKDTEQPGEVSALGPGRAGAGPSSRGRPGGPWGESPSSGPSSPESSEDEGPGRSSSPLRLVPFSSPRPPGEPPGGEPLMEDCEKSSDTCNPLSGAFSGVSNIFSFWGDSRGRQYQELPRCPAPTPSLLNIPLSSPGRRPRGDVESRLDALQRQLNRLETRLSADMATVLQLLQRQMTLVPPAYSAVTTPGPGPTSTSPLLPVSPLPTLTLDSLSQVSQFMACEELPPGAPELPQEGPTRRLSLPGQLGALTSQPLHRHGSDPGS

| SMILES | hERG current change (%, negative = inhibition) at 1uM [%] |
| --- | --- |
| CSc1ccc(S(=O)(=O)Nc2ccc3c(c2)NC(=O)CC3)cc1 | 2.21 |
| O=C(/C=C/c1ccc(F)cc1)N1CCc2ccccc2C1 | 9.18 |
| O=C(Cc1ccccc1)NCC(=O)OCC(=O)c1ccc([N+](=O)[O-])cc1 | 21.7 |
| O=C(CSc1nnc(NC(=O)CN2CCOCC2)s1)Nc1ccccc1 | 12.4 |
| O=C(NCCCN1CCN(CCCNC(=O)c2ccc3c(c2)OCO3)CC1)c1ccc2c(c1)OCO2 | -2.97 |
| CCOc1ccccc1N(C(=O)c1snc(C(N)=O)c1N)C(CC)C(=O)NC1CCCC1 (centres unmarked) | 15 |
| CCOC(=O)N1CCN(C(=O)c2c(N)no[n+]2[O-])CC1 | 10.5 |
| COc1ccc(NC(=S)Nc2cc(S(=O)(=O)N3CCCCC3)ccc2OC)cc1 | 2.47 |
| Cc1ccc(C(=O)NCC(C)NC(=O)c2ccc(C)c(C)c2)cc1C (centres unmarked) | 14.6 |
| COc1ccccc1N(CC(=O)NCCSc1ccccn1)S(=O)(=O)c1ccccc1 | 12.2 |
| CC(=O)C1(c2ccccc2)CCN(C(=O)C2CCC(=O)N(CCc3cccc(F)c3)C2)CC1 (centres unmarked) | -11.6 |
| CCN(c1cccc(C)c1)S(=O)(=O)c1cc2c3c(c1)CCN3C(=O)CC2 | 0.792 |
| CC(=O)Nc1ccc(-c2csc(Nc3ccccn3)n2)cc1 | 11.1 |
| Cc1cn(Cc2ccccc2)c(=O)[nH]c1=O | 6.13 |
| Cc1ccc(S(=O)(=O)N2CCN(C(=O)COC(=O)c3ccc(Cl)nc3)CC2)c(C)c1 | 9.05 |
| COc1ccc(S(=O)(=O)N2CC3CCCN3c3ccc(C(F)(F)F)cc32)cc1 (centres unmarked) | 7.48 |
| CCc1ccc(S(=O)(=O)NCc2csc(-c3ccccc3)n2)s1 | 6.81 |
| O=C(CC1CCCCC1)Nc1ccc(-c2ccc3nncn3n2)cc1 | 16.6 |
| COC(=O)c1c(NC(=O)COC(=O)c2ccc(O)cc2)sc2c1CCCCC2 | 3.2 |

| SMILES | hERG current change (%, negative = inhibition) at 1uM [%] |
| --- | --- |
| O=c1cc(CSc2ccc(Cl)cc2)nc(-c2ccccn2)[nH]1 | 15.4 |
| CCCC(=O)Nc1sc(C)c(C)c1C#N | 6.12 |
| O=C(NCCCn1ccnc1)c1ccc(Br)c(S(=O)(=O)N2CCOCC2)c1 | 10.8 |
| O=C(Nc1ccccc1OC(=O)N1CCOCC1)N1CCOCC1 | -1.7 |
| O=C(Cn1c(SCC(=O)NC2CCCC2)nnc1-c1ccncc1)Nc1ccc2c(c1)OCO2 | 15.4 |
| O=C(NCCC1=CCCCC1)NC1CCCCC1 | 8.22 |
| CNC(=O)/C=C/c1cccc(C(F)(F)F)c1 | 5.38 |
| Clc1nc(NCc2ccco2)nc(N2CCCCC2)n1 | 23.6 |
| COc1ccc2c(c1)CC/C(=C\c1ccc(OC)c(Cn3cccn3)c1)C2=O | 7.57 |
| Cn1cccc1C(=O)OCC(=O)Nc1ccc2c(c1)OCO2 | 12.3 |
| COc1ccc(C(CNC(=O)c2ccc(Cl)c(NC(=O)c3cccs3)c2)N2CCCC2)cc1 (centres unmarked) | -38.5 |
| COc1ccc(NS(=O)(=O)c2ccc(NS(C)(=O)=O)cc2)cc1 | 6.82 |
| Clc1ccc(C2CC(c3cccs3)n3ncnc3N2)cc1 (centres unmarked) | 3.49 |
| COc1cc(/C=C2\C(=O)N(c3ccc(S(N)(=O)=O)cc3)N=C2C)ccc1OC(=O)c1ccco1 | 9.27 |
| Cc1ccc(NC(=O)COC(=O)COc2cccc3c2OC(C)(C)C3)cc1C | 11.1 |
| CCOC(=O)C1CCCN(S(=O)(=O)c2ccc3c(c2)CC(C)N3C(=O)C2CC2)C1 (centres unmarked) | 12 |
| O=C(Cc1ccccc1F)Nc1ccc(SC(F)F)cc1 | 11.7 |
| Cc1nc(-c2ccc(F)cc2)c(CC(=O)N(C)CC(=O)Nc2ccccc2C(F)(F)F)s1 | 6.37 |
| CCC(C)NC(=O)c1cc2c(=O)[nH]c3ccc(C)cc3c2s1 (centres unmarked) | 13.9 |

| SMILES | hERG current change (%, negative = inhibition) at 1uM [%] |
| --- | --- |
| N/C(=N\c1nc2ccccc2o1)NC(=O)c1ccccc1Br | 14.3 |
| COC(=O)c1cc(NC(=O)c2cccnc2)cc(C(=O)OC)c1 | 11.2 |
| O=C(NNC(=O)c1cccc2ccccc12)c1ccc2c(c1)OCO2 | 14.4 |
| Cc1nc(-c2cccc3ccccc23)ccc1C(=O)O | 10.5 |
| CCCCCCCCCCCCN1[C@@H](CC(=O)OC)c2cc(F)cc(F)c2S1(=O)=O | 14.4 |
| O=C(C1CC(=O)N(c2ccccc2)C1)N1CCN(c2ccccc2)CC1 (centres unmarked) | -15.9 |
| COc1ccc(C2=NO[C@@H]3[C@@H]4C[C@@H]([C@H]5C(=O)N(C)C(=O)[C@@H]45)[C@H]23)c(OC)c1 | 13.4 |
| CC(=O)N1CCc2cc(S(=O)(=O)NCCC3=CCCCC3)ccc21 | 12.8 |
| O=C(C1CCCN(Cc2ccccc2F)C1)N1CCCC1.O=C(O)C(=O)O (centres unmarked) | 9.87 |
| S=C(NCc1ccco1)Nc1ccc(N2CCOCC2)cc1 | 11.9 |
| CCOC(=O)c1cnc2ccc(C(=O)OC)cc2c1Nc1ccc2c(c1)OCCO2 | 10.5 |
| COc1ccc(-c2c[nH]c(=O)[nH]c2=O)cc1OC | 10.6 |
| CC(C)(C)c1ccc(O)c(O)c1 | 14.1 |
| CCCC(=O)n1nc(NCc2ccc(OC)cc2)nc1NCc1ccc(OC)cc1 | 11.3 |
| Cc1cc(C)nc(N2CCCC(C(=O)NCCc3ccccc3F)C2)n1 (centres unmarked) | 16.9 |
| CC(CN(C)Cc1nc(Cc2cccc(C(F)(F)F)c2)no1)CN1CCCC1 (centres unmarked) | -28.4 |
| CCOc1ccccc1CN1CCNC(=O)C1CC(=O)N(C)CCc1cnn(C)c1 (centres unmarked) | -7.03 |
| C=CCOc1nc2c(c(=O)n(C)c(=O)n2C)n1Cc1c(Cl)cccc1Cl | 5.73 |
